Source: PMC4336329 (PLoS ONE, 2015)
The campaign covered roughly 310,000 compounds. About 14,000 (4.5%) showed an effect of 50% or more. Effects have a minus sign here. This is one part of the list.

Target: human ether-à-go-go-related gene (hERG) potassium channel (human, UniProt Q12809)
Test: primary screen, population patch clamp on CHO cells stably expressing hERG
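Further: peak tail current of the secondary pulse compared with the same well before compound.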

Chain of human ether-à-go-go-related gene (hERG) potassium channel (Q12809 whole entry, looked up): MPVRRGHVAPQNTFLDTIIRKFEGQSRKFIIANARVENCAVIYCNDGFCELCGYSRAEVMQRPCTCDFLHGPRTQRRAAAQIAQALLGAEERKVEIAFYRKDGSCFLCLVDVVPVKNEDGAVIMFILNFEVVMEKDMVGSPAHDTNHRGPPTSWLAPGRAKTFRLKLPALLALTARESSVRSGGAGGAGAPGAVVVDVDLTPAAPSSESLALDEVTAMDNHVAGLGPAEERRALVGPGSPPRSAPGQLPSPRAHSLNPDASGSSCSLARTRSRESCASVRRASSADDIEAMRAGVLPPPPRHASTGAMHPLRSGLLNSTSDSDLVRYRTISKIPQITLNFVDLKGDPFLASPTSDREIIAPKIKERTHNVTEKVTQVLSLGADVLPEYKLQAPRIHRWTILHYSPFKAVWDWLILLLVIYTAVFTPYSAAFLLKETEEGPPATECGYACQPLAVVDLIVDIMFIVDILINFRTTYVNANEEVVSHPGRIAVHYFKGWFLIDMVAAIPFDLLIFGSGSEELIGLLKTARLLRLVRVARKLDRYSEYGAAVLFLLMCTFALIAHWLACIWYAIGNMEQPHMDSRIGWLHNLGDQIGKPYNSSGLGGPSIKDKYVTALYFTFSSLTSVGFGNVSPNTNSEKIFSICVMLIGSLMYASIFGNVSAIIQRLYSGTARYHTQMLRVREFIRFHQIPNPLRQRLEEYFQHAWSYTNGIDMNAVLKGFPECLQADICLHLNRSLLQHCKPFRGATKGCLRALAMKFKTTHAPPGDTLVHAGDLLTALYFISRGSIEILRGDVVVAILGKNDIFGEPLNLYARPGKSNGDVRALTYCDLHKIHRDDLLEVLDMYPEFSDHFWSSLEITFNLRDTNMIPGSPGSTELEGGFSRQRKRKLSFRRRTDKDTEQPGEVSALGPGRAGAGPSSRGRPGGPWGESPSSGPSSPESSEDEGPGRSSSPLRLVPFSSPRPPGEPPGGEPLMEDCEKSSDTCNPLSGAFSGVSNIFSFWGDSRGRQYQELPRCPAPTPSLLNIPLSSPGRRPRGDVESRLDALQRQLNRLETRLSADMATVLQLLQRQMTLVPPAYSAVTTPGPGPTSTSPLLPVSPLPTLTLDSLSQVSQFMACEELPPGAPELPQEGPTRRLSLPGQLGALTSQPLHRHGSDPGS

| Compound | hERG current change (%, negative = inhibition) at 10uM |
| --- | --- |
| COc1ccc(COC(=O)CN2C(=O)NC3(CCCC3)C2=O)cc1F | -3.03% |
| CCc1ccccc1NNC(=O)CCc1ccccc1 | 7.59% |
| O=C(COC(=O)CCNS(=O)(=O)c1ccccc1)NC(=O)Cc1ccccc1 | -6.79% |
| COCCNC(=O)C(=O)NCC1OCCN1S(=O)(=O)c1ccc(C)cc1 (stereo not shown) | 15.7% |
| COc1cc(-c2noc(C)c2C#CCO)cc(OC)c1OC | 6.47% |
| CCOC(=O)OC(C)OC1=C(C(=O)Nc2ccccn2)N(C)S(=O)(=O)c2ccccc21 (stereo not shown) | 16.1% |
| Nc1nc(C2CC2)c(Sc2sc(N)nc2C2CC2)s1 | -1.16% |
| c1ccc(-c2nccnc2-c2ccccc2)cc1 | -8.23% |
| COCc1n[nH]c(=S)n1-c1cccc2ccccc12 | 18.2% |
| CC(=O)Nc1ccc(C(=O)OCCC(C)C)cc1 | -17.4% |
| O=C(CSc1nc2sccc2c(=O)[nH]1)N1CCN(c2ccccc2)CC1 | 0.279% |
| O=C(/C=C/c1ccccc1)NNC(=O)c1cccc(Cl)c1 | -2.03% |
| CCc1cccc(CC)c1NC(=O)COC(=O)CC1c2ccccc2CCN1S(=O)(=O)c1ccc(F)cc1 (stereo not shown) | -2.04% |
| Cc1ccc(S(=O)(=O)Nc2ccc(-c3nc4ccc(C)cc4s3)cc2)cc1 | 2.32% |
| Cc1ccc2nc(Nc3ncc4c(n3)CC(C)(C)CC4=O)nc(C)c2c1 | 15.3% |
| COC(=O)C1=C(c2ccccc2)C[C@@H]2CC[C@H]1N2C(=O)NC(C)C | -3.45% |
| CO/N=C/C1CCN(c2ncc(C(F)(F)F)cc2Cl)C1=O (stereo not shown) | 9.39% |
| CC(=NCCCNC1CCCCC1)C1=C(O)CC(C)(C)CC1=O | 10.8% |
| S=c1[nH]nc(Cn2cnc3ccccc32)n1-c1ccccc1 | 17.1% |
| COc1ccc(-c2cc(C(F)(F)F)nc(-n3cc(Cl)cn3)n2)cc1 | -18.5% |
| O=C(O)CCCC(=O)N1N=C(c2ccccc2)CC1c1ccc2c(c1)OCO2 (stereo not shown) | 21.2% |
| CC(=O)CCc1oc2c([N+](=O)[O-])cccc2c1-c1ccc(C)o1 | 29.1% |

| Compound | hERG current change (%, negative = inhibition) at 10uM |
| --- | --- |
| CN1CCSc2ccc(C(=O)NCc3cccc(F)c3)cc21 | 16.6% |
| CCOc1ccc(Cl)cc1CNCCNCC(C)O.Cl (stereo not shown) | -4.31% |
| COC(=O)c1sccc1NC(=O)c1ccc2c(c1)OCO2 | -6.39% |
| COc1ccc(CCN2CN(S(=O)(=O)c3ccc(C)cc3)c3nc4ccccc4nc32)cc1OC | 5.58% |
| CSc1ccccc1OCc1cc(C(=O)N2CCN(C3CCCC3)C(=O)C2)no1 | -34.8% |
| Cc1ccc(O)c(N=Nc2ccccc2)n1 | 2.12% |
| COc1ccc(-c2nsc3c(SCc4ccccc4)ncnc23)cc1 | 0.87% |
| COc1ccc(S(=O)(=O)n2cccc2)cc1OC | 11.4% |
| Cc1cnn(-c2nc(-c3cccs3)cc(C(F)(F)F)n2)c1 | -21.9% |
| Cc1sc2ncnc(N3CCC(C(=O)Nc4nnc(SCc5ccccc5F)s4)CC3)c2c1C | 4.36% |
| Cc1cc(=O)nc2c3ccccc3n(CC(=O)Nc3ccccc3Br)n12 | -7.45% |
| COc1cccc(OCc2nc(-c3cccc([N+](=O)[O-])c3)no2)c1 | 19.7% |
| CCc1noc(C)c1C(=O)N1CCC(CCC(=O)Nc2cccc(OC)c2)CC1 | -9.53% |
| COc1ccc2c(c1)CCNC2Cc1ccc(OC)c(O)c1 (stereo not shown) | -23% |
| CS(=O)(=O)c1ccc2nc(NC(=O)c3ccccc3Br)sc2c1 | 4.15% |
| CCCSc1nnc2nc(C)cc(C)n12 | -8.87% |
| CCCC1=C(C(=O)OCC)C(c2ccco2)C(C#N)=C(N)O1 (stereo not shown) | 5.85% |
| NC(=O)CSc1oc(-c2ccco2)nc1S(=O)(=O)c1ccccc1 | 4.57% |
| CN1C(=O)/C(=C2\SC(=S)N(CCCCCC(=O)O)C2=O)c2ccccc21 | 9.23% |
| Cc1sc2nc(CN3CCOCC3)nc(N3CCN(S(=O)(=O)c4ccccc4)CC3)c2c1C | -41.6% |
| Cc1ccnc(NS(=O)(=O)c2ccc(NC(=O)Cc3ccccc3)cc2)n1 | 5.26% |
| CCOC(=O)c1c(C)[nH]c(C(=O)OCC(=O)NCCc2ccc(OCC)c(OCC)c2)c1C | 19.8% |

| Compound | hERG current change (%, negative = inhibition) at 10uM |
| --- | --- |
| CCOC(=O)c1c(NC(=S)NC)sc2c1CCCC2 | 18.3% |
| CCC(C)NC(=O)CN1C(=O)CSc2ccc(S(=O)(=O)N3CCCC3)cc21 (stereo not shown) | -1.43% |
| Cn1c(Cl)c(/C=N/OC(=O)c2ccc(Cl)cc2)c2ccccc21 | -5.13% |
| Cc1cc(C)c(OCC(=O)Nc2ccc3c(c2)OCO3)cc1C | 5.91% |
| Cc1cc(O)ccc1NC(=S)NC(=O)c1cncc(Br)c1 | 20.6% |
| O=C(NNC1CC(=O)N(c2ccccc2)C1=O)c1ccccc1Cl (stereo not shown) | 14.6% |
| COc1ccc(N(CC(=O)NCc2ccccc2)C(=O)CCC(=O)Nc2cc(C)ccn2)c(OC)c1 | -46.9% |
| O=C(NC1CCCC1)C(c1ccccc1)N(Cc1ccc(F)cc1)C(=O)c1csnn1 (stereo not shown) | -43.6% |
| COc1ccc(C(=O)C2CCN(CC(=O)Nc3ccc(C)cc3)CC2)cc1 | -53.4% |
| CCC(C)c1ccc(NC(=O)COC(=O)C2=COCCO2)cc1 (stereo not shown) | -5.55% |
| C[C@@H]1NC(=O)[C@H](CCC(N)=O)NC(=O)c2cc([N+](=O)[O-])cc(I)c2NCC[C@@H](C(N)=O)NC1=O | 10.7% |
| C[C@@H]1NC(=O)[C@H](CCCN=C(N)N)NC(=O)c2cc([N+](=O)[O-])cc(I)c2NCCC[C@@H](C(N)=O)NC1=O | 12.2% |
| CCOc1ccc(C(=O)N2CCN(CC(=O)N3CCCC3)CC2)cc1OCC | -3.21% |
| CC(C)(C)n1nc2c(c1NC(=O)c1ccc(Br)cc1)CS(=O)C2 (stereo not shown) | -9.21% |
| O=C(NCc1nnc(SCC(=O)N2CCOCC2)o1)c1c(F)cccc1Cl | 4.85% |
| CCCN(Cc1nc(-c2ccc(Cl)cc2)no1)CC1CCCO1 (stereo not shown) | -8.15% |
| CCOC(=O)N1CCN(C(=O)CN(Cc2ccc(Cl)cc2)S(=O)(=O)c2ccccc2)CC1 | -70.1% |
| O=C(Cc1ccc([N+](=O)[O-])cc1)N/N=C/c1cccs1 | -11.7% |
| Cc1ccc(/C=C2/NC(=O)N(Cc3ccc(Br)cc3)C2=O)o1 | -0.242% |
| Cc1cc(=O)oc(C)c1C(=O)Nc1ccc2nsnc2c1 | 9.45% |
| O=c1c(-c2ccc(O)cc2)coc2c(C3O[C@H](CO)[C@@H](O)[C@H](O)[C@H]3O)c(O)ccc12 (stereo partly shown) | 32% |
| CCOC(=O)C(C)Sc1ccc2nnc(CCNS(=O)(=O)c3ccc(C)cc3)n2n1 (stereo not shown) | -42.1% |

| Compound | hERG current change (%, negative = inhibition) at 10uM |
| --- | --- |
| COCCCNc1nc2ccccc2nc1NS(=O)(=O)c1cccc(Cl)c1 | 25.7% |
| CCC(C)C(NC(=O)OCc1ccccc1)C(=O)OCN1C(=O)c2ccccc2C1=O (stereo not shown) | -2.01% |
| CS(=O)(=O)N(CC(=O)N1CCCCC1)c1cccc(F)c1 | 13% |
| Cn1c(=O)[nH]c(=O)c2c1nc(N/N=C/C(Br)=C/c1ccccc1)n2CCO | 14.3% |
| CCc1ccc(CC)c(S(=O)(=O)Nc2ccc(C(=O)O)c(O)c2)c1 | 17.3% |
| Cc1cc(C(=O)NNC(=O)CCN2CCN(c3ccccc3)CC2)c2ccccc2n1 | 4.95% |
| CCCCc1cc(=O)oc2cc(C)cc(OC(C)C(=O)O)c12 (stereo not shown) | 18.8% |
| CCC(C)n1[nH]c(=O)cc1N (stereo not shown) | 19.5% |
| CCOC(=O)c1ccc(NC(=O)Nc2ccc(S(N)(=O)=O)cc2)cc1 | -1.88% |
| CCCCc1c(O)c2ccccc2[nH]c1=O | 0.685% |
| Cc1onc(-c2ccccc2)c1C(=O)N1CCN(c2ccccn2)CC1 | 4.01% |
| COc1ccc(/C=N/NC(=O)c2cc(C3CC3)[nH]n2)cc1OC | -10.2% |
| COc1ccc(Cn2c(/C=C/c3ccccc3)nc3ccccc32)cc1 | -15.9% |
| COc1ccccc1CCNC(=O)CSc1nnc2ccc(-c3ccncc3)nn12 | -24.9% |
| O=S(=O)(NCc1ccc2c(c1)OCO2)c1cccc2cccnc12 | -6.62% |
| O=C(CCCn1cnc([N+](=O)[O-])n1)Nc1cccc2ccccc12 | 5.62% |
| Cc1csc(=NC(=O)c2ccccc2)n1CCO | 19.5% |
| c1ccc(CN=C2NN=C(c3cc4ccccc4o3)CS2)cc1 | -16.3% |
| CCOc1ccc(-c2ccc(SCC(=O)N3CCN(c4ccccc4)CC3)nn2)cc1 | 1.96% |
| CCN(CC)S(=O)(=O)c1ccc(N2CCOCC2)c(NC(=O)c2cnccn2)c1 | -34.8% |
| CCN(CC)S(=O)(=O)c1cc(NC(=O)COC(=O)CCC(=O)c2ccc(F)cc2)ccc1C | -46.6% |
| CCOC(=O)c1c(C2CC2)csc1NC(=O)COC(=O)c1cnc(Cl)c(Cl)c1 | 4.99% |
